Assay results as given in the supplement of paper PMC12230231.

Each sequence was assayed on SIVsab (simian immunodeficiency virus of sabaeus monkeys), single-cycle GFP reporter, in CRFK cells (assay: enrichment among uninfected cells over input (fold); higher = stronger restriction). Details: library: human / rhesus combinations.
Description: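 Pools of CRFK cells expressing variants of the TRIM5α v1 loop were challenged with the single-cycle reporter, sorted by GFP and sequenced; mean of two replicates.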

**Q.** With “MASGILVNVKEEVTCPICLELLTQPLSLDCGHSFCQACLTANHKKSMLDKGESSCPVCRISYQPENIRPNRHVANIVEKLREVKLSPEGQKVDHCARHGEKLLLFCQEDGKVICWLCERSQEHRGHHTFLTEEVAREYQVKLQAALEMLRQKQQEAEELEADIREEKASWKTQIQYDKTNVLADFEQLRDILDWEESNELQNLEKEEEDILKSLTNSETEMVQQTQSLRELISDLEHRLQGSVMELLQGVDGVIKRTENVTLKKPETFPKNQRRVFRAPDLKGMLEVFRELTDVRRYWVDVTVAPNNISCAVISEDKRQVSSPKPQIIYGARGTRFTFPTLTNFNYCTGILGSQSITSGKHYWEVDVSKKTAWILGVCAGFQPDAMCNIEKNENYQPKYGYWVIGLEEGVKCSAFQDSSFHTPSVPFIVPLSVIICPDRVGVFLDYEACTVSFFNITNHGFLIYKFSHCSFSQPVFPYLNPRKCGVPMTLCSPSS [human TRIM5α, 330-340 = GARGTRFTFPTLT]” as the sequence, how does the enrichment read?
**A.** Its enrichment is 0.259 ± 0.083.

**Q.** Which enrichment does the source give for “MASGILVNVKEEVTCPICLELLTQPLSLDCGHSFCQACLTANHKKSMLDKGESSCPVCRISYQPENIRPNRHVANIVEKLREVKLSPEGQKVDHCARHGEKLLLFCQEDGKVICWLCERSQEHRGHHTFLTEEVAREYQVKLQAALEMLRQKQQEAEELEADIREEKASWKTQIQYDKTNVLADFEQLRDILDWEESNELQNLEKEEEDILKSLTNSETEMVQQTQSLRELISDLEHRLQGSVMELLQGVDGVIKRTENVTLKKPETFPKNQRRVFRAPDLKGMLEVFRELTDVRRYWVDVTVAPNNISCAVISEDKRQVSSPKPQIIYQAPGTRFTFQTFTNFNYCTGILGSQSITSGKHYWEVDVSKKTAWILGVCAGFQPDAMCNIEKNENYQPKYGYWVIGLEEGVKCSAFQDSSFHTPSVPFIVPLSVIICPDRVGVFLDYEACTVSFFNITNHGFLIYKFSHCSFSQPVFPYLNPRKCGVPMTLCSPSS [human TRIM5α, 330-340 = QAPGTRFTFQTFT]” here?
**A.** The enrichment was 1.28 ± 0.084.

**Q.** How did the enrichment turn out when “MASGILVNVKEEVTCPICLELLTQPLSLDCGHSFCQACLTANHKKSMLDKGESSCPVCRISYQPENIRPNRHVANIVEKLREVKLSPEGQKVDHCARHGEKLLLFCQEDGKVICWLCERSQEHRGHHTFLTEEVAREYQVKLQAALEMLRQKQQEAEELEADIREEKASWKTQIQYDKTNVLADFEQLRDILDWEESNELQNLEKEEEDILKSLTNSETEMVQQTQSLRELISDLEHRLQGSVMELLQGVDGVIKRTENVTLKKPETFPKNQRRVFRAPDLKGMLEVFRELTDVRRYWVDVTVAPNNISCAVISEDKRQVSSPKPQIIYQARGTLFTFPSFVNFNYCTGILGSQSITSGKHYWEVDVSKKTAWILGVCAGFQPDAMCNIEKNENYQPKYGYWVIGLEEGVKCSAFQDSSFHTPSVPFIVPLSVIICPDRVGVFLDYEACTVSFFNITNHGFLIYKFSHCSFSQPVFPYLNPRKCGVPMTLCSPSS [human TRIM5α, 330-340 = QARGTLFTFPSFV]” was run?
**A.** The enrichment was 1.04 ± 0.17.

**Q.** How did the enrichment turn out when “MASGILVNVKEEVTCPICLELLTQPLSLDCGHSFCQACLTANHKKSMLDKGESSCPVCRISYQPENIRPNRHVANIVEKLREVKLSPEGQKVDHCARHGEKLLLFCQEDGKVICWLCERSQEHRGHHTFLTEEVAREYQVKLQAALEMLRQKQQEAEELEADIREEKASWKTQIQYDKTNVLADFEQLRDILDWEESNELQNLEKEEEDILKSLTNSETEMVQQTQSLRELISDLEHRLQGSVMELLQGVDGVIKRTENVTLKKPETFPKNQRRVFRAPDLKGMLEVFRELTDVRRYWVDVTVAPNNISCAVISEDKRQVSSPKPQIIYQARGTLYQTLVNFNYCTGILGSQSITSGKHYWEVDVSKKTAWILGVCAGFQPDAMCNIEKNENYQPKYGYWVIGLEEGVKCSAFQDSSFHTPSVPFIVPLSVIICPDRVGVFLDYEACTVSFFNITNHGFLIYKFSHCSFSQPVFPYLNPRKCGVPMTLCSPSS [human TRIM5α, 330-340 = QARGTLYQTLV]” was run?
**A.** Its enrichment is 0.00714 ± 0.0016.

**Q.** For “MASGILVNVKEEVTCPICLELLTQPLSLDCGHSFCQACLTANHKKSMLDKGESSCPVCRISYQPENIRPNRHVANIVEKLREVKLSPEGQKVDHCARHGEKLLLFCQEDGKVICWLCERSQEHRGHHTFLTEEVAREYQVKLQAALEMLRQKQQEAEELEADIREEKASWKTQIQYDKTNVLADFEQLRDILDWEESNELQNLEKEEEDILKSLTNSETEMVQQTQSLRELISDLEHRLQGSVMELLQGVDGVIKRTENVTLKKPETFPKNQRRVFRAPDLKGMLEVFRELTDVRRYWVDVTVAPNNISCAVISEDKRQVSSPKPQIIYQAPGTRFTFPTLTNFNYCTGILGSQSITSGKHYWEVDVSKKTAWILGVCAGFQPDAMCNIEKNENYQPKYGYWVIGLEEGVKCSAFQDSSFHTPSVPFIVPLSVIICPDRVGVFLDYEACTVSFFNITNHGFLIYKFSHCSFSQPVFPYLNPRKCGVPMTLCSPSS [human TRIM5α, 330-340 = QAPGTRFTFPTLT]”, which enrichment is on record?
**A.** The enrichment was 7.19 ± 3.9.

**Q.** Which enrichment does the source give for “MASGILVNVKEEVTCPICLELLTQPLSLDCGHSFCQACLTANHKKSMLDKGESSCPVCRISYQPENIRPNRHVANIVEKLREVKLSPEGQKVDHCARHGEKLLLFCQEDGKVICWLCERSQEHRGHHTFLTEEVAREYQVKLQAALEMLRQKQQEAEELEADIREEKASWKTQIQYDKTNVLADFEQLRDILDWEESNELQNLEKEEEDILKSLTNSETEMVQQTQSLRELISDLEHRLQGSVMELLQGVDGVIKRTENVTLKKPETFPKNQRRVFRAPDLKGMLEVFRELTDVRRYWVDVTVAPNNISCAVISEDKRQVSSPKPQIIYQAPGTRYTFQTLVNFNYCTGILGSQSITSGKHYWEVDVSKKTAWILGVCAGFQPDAMCNIEKNENYQPKYGYWVIGLEEGVKCSAFQDSSFHTPSVPFIVPLSVIICPDRVGVFLDYEACTVSFFNITNHGFLIYKFSHCSFSQPVFPYLNPRKCGVPMTLCSPSS [human TRIM5α, 330-340 = QAPGTRYTFQTLV]” here?
**A.** The enrichment was 0.111 ± 0.055.

**Q.** How did the enrichment turn out when “MASGILVNVKEEVTCPICLELLTQPLSLDCGHSFCQACLTANHKKSMLDKGESSCPVCRISYQPENIRPNRHVANIVEKLREVKLSPEGQKVDHCARHGEKLLLFCQEDGKVICWLCERSQEHRGHHTFLTEEVAREYQVKLQAALEMLRQKQQEAEELEADIREEKASWKTQIQYDKTNVLADFEQLRDILDWEESNELQNLEKEEEDILKSLTNSETEMVQQTQSLRELISDLEHRLQGSVMELLQGVDGVIKRTENVTLKKPETFPKNQRRVFRAPDLKGMLEVFRELTDVRRYWVDVTVAPNNISCAVISEDKRQVSSPKPQIIYQARGTLFPSFVNFNYCTGILGSQSITSGKHYWEVDVSKKTAWILGVCAGFQPDAMCNIEKNENYQPKYGYWVIGLEEGVKCSAFQDSSFHTPSVPFIVPLSVIICPDRVGVFLDYEACTVSFFNITNHGFLIYKFSHCSFSQPVFPYLNPRKCGVPMTLCSPSS [human TRIM5α, 330-340 = QARGTLFPSFV]” was run?
**A.** Its enrichment is 0.124 ± 0.16.

Same assay, conditions: library: insertions and deletions

**Q.** Which enrichment does the source give for “MASGILVNVKEEVTCPICLELLTQPLSLDCGHSFCQACLTANHKKSMLDKGESSCPVCRISYQPENIRPNRHVANIVEKLREVKLSPEGQKVDHCARHGEKLLLFCQEDGKVICWLCERSQEHRGHHTFLTEEVAREYQVKLQAALEMLRQKQQEAEELEADIREEKASWKTQIQYDKTNVLADFEQLRDILDWEESNELQNLEKEEEDILKSLTNSETEMVQQTQSLRELISDLEHRLQGSVMELLQGVDGVIKRTENVTLKKPETFPKNQRRVFRAPDLKGMLEVFRELTDVRRYWVDVTVAPNNISCAVISEDKRQVSSPKPQIIYGARGTRYQTFVNFNYNYCTGILGSQSITSGKHYWEVDVSKKTAWILGVCAGFQPDAMCNIEKNENYQPKYGYWVIGLEEGVKCSAFQDSSFHTPSVPFIVPLSVIICPDRVGVFLDYEACTVSFFNITNHGFLIYKFSHCSFSQPVFPYLNPRKCGVPMTLCSPSS [human TRIM5α, 2-codon duplication at 343]” here?
**A.** The enrichment was 0.73 ± 0.57.

**Q.** With “MASGILVNVKEEVTCPICLELLTQPLSLDCGHSFCQACLTANHKKSMLDKGESSCPVCRISYQPENIRPNRHVANIVEKLREVKLSPEGQKVDHCARHGEKLLLFCQEDGKVICWLCERSQEHRGHHTFLTEEVAREYQVKLQAALEMLRQKQQEAEELEADIREEKASWKTQIQYDKTNVLADFEQLRDILDWEESNELQNLEKEEEDILKSLTNSETEMVQQTQSLRELISDLEHRLQGSVMELLQGVDGVIKRTENVTLKKPETFPKNQRRVFRAPDLKGMLEVFRELTDVRRYWVDVTVAPNNISCAVISEDKRQVSSPKPQIIYGARGTRYQTFVNFNYCTGIVNFNYCTGILGSQSITSGKHYWEVDVSKKTAWILGVCAGFQPDAMCNIEKNENYQPKYGYWVIGLEEGVKCSAFQDSSFHTPSVPFIVPLSVIICPDRVGVFLDYEACTVSFFNITNHGFLIYKFSHCSFSQPVFPYLNPRKCGVPMTLCSPSS [human TRIM5α, 9-codon duplication at 340]” as the sequence, how does the enrichment read?
**A.** The enrichment was 0.707 ± 0.3.

**Q.** “MASGILVNVKEEVTCPICLELLTQPLSLDCGHSFCQACLTANHKKSMLDKGESSCPVCRISYQPENIRPNRHVANIVEKLREVKLSPEGQKVDHCARHGEKLLLFCQEDGKVICWLCERSQEHRGHHTFLTEEVAREYQVKLQAALEMLRQKQQEAEELEADIREEKASWKTQIQYDKTNVLADFEQLRDILDWEESNELQNLEKEEEDILKSLTNSETEMVQQTQSLRELISDLEHRLQGSVMELLQGVDGVIKRTENVTLKKPETFPKNQRRVFRAPDLKGMLEVFRELTDVRRYWVDVTVAPNNISCAVISEDKRQVSSPIIYGARGTRYQTFVNFNYCTGILGSQSITSGKHYWEVDVSKKTAWILGVCAGFQPDAMCNIEKNENYQPKYGYWVIGLEEGVKCSAFQDSSFHTPSVPFIVPLSVIICPDRVGVFLDYEACTVSFFNITNHGFLIYKFSHCSFSQPVFPYLNPRKCGVPMTLCSPSS [human TRIM5α, 3-codon deletion at 324]” was tested. Which enrichment did it give?
**A.** The enrichment was 0.122 ± 0.037.

**Q.** How did the enrichment turn out when “MASGILVNVKEEVTCPICLELLTQPLSLDCGHSFCQACLTANHKKSMLDKGESSCPVCRISYQPENIRPNRHVANIVEKLREVKLSPEGQKVDHCARHGEKLLLFCQEDGKVICWLCERSQEHRGHHTFLTEEVAREYQVKLQAALEMLRQKQQEAEELEADIREEKASWKTQIQYDKTNVLADFEQLRDILDWEESNELQNLEKEEEDILKSLTNSETEMVQQTQSLRELISDLEHRLQGSVMELLQGVDGVIKRTENVTLKKPETFPKNQRRVFRAPDLKGMLEVFRELTDVRRYWVDVTVAPNNISCAVISEDKRQVSSPKPQIIYGARGTRYGARGTRYQTFVNFNYCTGILGSQSITSGKHYWEVDVSKKTAWILGVCAGFQPDAMCNIEKNENYQPKYGYWVIGLEEGVKCSAFQDSSFHTPSVPFIVPLSVIICPDRVGVFLDYEACTVSFFNITNHGFLIYKFSHCSFSQPVFPYLNPRKCGVPMTLCSPSS [human TRIM5α, 7-codon duplication at 329]” was run?
**A.** Its enrichment is 0.225 ± 0.085.

**Q.** For “MASGILVNVKEEVTCPICLELLTQPLSLDCGHSFCQACLTANHKKSMLDKGESSCPVCRISYQPENIRPNRHVANIVEKLREVKLSPEGQKVDHCARHGEKLLLFCQEDGKVICWLCERSQEHRGHHTFLTEEVAREYQVKLQAALEMLRQKQQEAEELEADIREEKASWKTQIQYDKTNVLADFEQLRDILDWEESNELQNLEKEEEDILKSLTNSETEMVQQTQSLRELISDLEHRLQGSVMELLQGVDGVIKRTENVTLKKPETFPKNQRRVFRAPDLKGMLEVFRELTDVRRYWVDVTVAPNNISCAVISEDKRQVSSPKPQIIYGARGTFVNFNYCTGILGSQSITSGKHYWEVDVSKKTAWILGVCAGFQPDAMCNIEKNENYQPKYGYWVIGLEEGVKCSAFQDSSFHTPSVPFIVPLSVIICPDRVGVFLDYEACTVSFFNITNHGFLIYKFSHCSFSQPVFPYLNPRKCGVPMTLCSPSS [human TRIM5α, 4-codon deletion at 335]”, which enrichment is on record?
**A.** The enrichment was 0.56 ± 0.21.

± gives the standard deviation of the averaged measurements. Restriction of a single-cycle SIVsab GFP reporter by TRIM5α v1-loop variants in CRFK cells. Human variants: read share among cells still uninfected after two challenges over input, higher = gained restriction. Rhesus variants: share among infected cells over input, higher = lost restriction. Reporter dose not given per row. No active / inactive call per row; the paper calls a change when both replicates lie above its controls (mean + 2 SD of stop or wild-type variants, or the top frameshift score). Residues outside the varied loop are taken from Swiss-Prot. The paper reads the human single-substitution scores as noise; they and the rhesus combinations repeat poorly (rank correlation 0.3 to 0.4), indel scores repeat only for the top variants, rhesus substitutions well (0.9).
